Growth inhibition call data for 12 compounds are collected here from the antibiotic and cytotoxicity screens of Wong et al. (2023).

Some of the results follow.

This assay concerns S. aureus RN4220. As to the kind of experiment: growth inhibition call (relative growth <= 0.2). The note with it: 50 µM.
On to `Cn1nnc2cc(CO)ccc21`, for which the growth inhibition call was “inactive”. Then `C[C@@H]1CN([C@H](C)CO)C(=O)c2cc(NC(=O)Nc3ccc(F)cc3)ccc2O[C@@H](C)CCCCO[C@H]1CN(C)S(=O)(=O)c1ccccc1`, with “inactive”. The value for `O=C(C[C@@H]1CC[C@H](NC(=O)c2ccc(F)cc2)[C@@H](CO)O1)NCc1ccncn1` was “inactive”.

Consider `N#Cc1ccc(C(c2ccc(C#N)cc2)n2cncn2)cc1`, for which the growth inhibition call is “inactive”. Then `Cc1cc(C(=O)Nc2cccc3c2O[C@@H](CN(C)Cc2ccc(C(=O)O)cc2)[C@@H](C)CN([C@@H](C)CO)C3=O)n(C)n1`, with “inactive”; and `Cc1ccc(S(=O)(=O)Nc2ccc3c(c2)CC(=O)N([C@H](C)CO)C[C@@H](C)[C@H](CN(C)S(=O)(=O)c2cn(C)cn2)O3)cc1`, with “inactive”. The value for `CN(Cc1ccccc1)C[C@H]1C[C@@H](c2ccc(CO)cc2)O[C@H](c2ccc(NC(=O)CCCCCCC(=O)NO)cc2)O1` was “inactive”; that for `NCc1cccc(O)c1` was “inactive”. The value for `COc1ccc(CN(C)C[C@H]2Oc3ccc(NC(=O)CCN4CCOCC4)cc3CC(=O)N([C@@H](C)CO)C[C@@H]2C)cc1` was “inactive”. `Cc1ccc(S(=O)(=O)Nc2cccc3c2O[C@H](CN(C)S(=O)(=O)c2c(C)noc2C)[C@H](C)CN([C@H](C)CO)C3=O)cc1`: the growth inhibition call was “inactive”. Then `COc1ccc(CNC(=O)C[C@@H]2CC[C@H]3[C@H](COc4ccc(NC(=O)C(C)C)cc4C(=O)N3C)O2)cc1`, with “inactive”; and `COc1ccc(NC(=O)N(C)C[C@@H]2Oc3ccc(NC(=O)CCN4CCOCC4)cc3CC(=O)N([C@H](C)CO)C[C@@H]2C)cc1`, with “inactive”.
